{
  "source": "the supplement of paper PMC11876631",
  "parents": {"B1": {"name": "gltA; a variant is named by its letters at X, in order (parent)", "chain": "MADTKAKLTLNGDTAVELDVLKGTLGQDVIDIRTLGSKGVFTFDPGFTSTASCESKITFIDGDEGILLHRGFPIDQLATDSNYLEVCYILLNGEKPTQEQYDEFKTTVTRHTMIHEQXTRLXHAFRRDSHPMAVMCGITGALAAFYHDSLDVNNPRHREIAAFRLLSKMPTMAAMCYKYSIGQPFVYPRNDLSYAGNFLNXMFSTPCEPYEVNPILERAMDRILILHADHEQNASTSTVRTAGSSGANPFACIAAGIASLWGPAHGGANEAALKMLEEISSVKHIPEFVRRAKDKNDSFRLMGFGHRVYKNYDPRATVMRETCHEVLKELGTKDDLLEVAMELENIALNDPYFIEKKLYPNVDFYSGIILKAMGIPSSMFTVXXAMARTVGWXAHWSEMHSDGMKIARPRQLYTGYEKRDFKSDIKR"}},
  "note": "± gives the standard deviation of the averaged measurements. Laboratory Escherichia coli strains with one amino-acid change in an essential protein, pooled on minimal glucose agar with carbenicillin or gentamicin at twice the control MIC (plus kanamycin and chloramphenicol for the plasmids), 48 h. Fold change of barcode share against drug-free plates; higher = less susceptible. Active = above 20 in both replicates (the paper's putatively resistant). '<' = one read or none on drug, '>' = one read or none on a drug-free plate. Shares are relative, so most strains fall below 1 when a few take over. Listed are strains with at least 15 reads on both drug-free plates, and hits; most hits rest on fewer reference reads. Replicate rank correlation about 0.5. Edits are read from barcodes.",
  "data": [
    {"variants_of": "B1", "test": "barcode share on antibiotic plates over drug-free plates; higher = less susceptible", "details": "with Escherichia coli (laboratory strain); antibiotic: carbenicillin; 2× MIC (3.1 µg/mL)", "description": "(§1)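 A pool of E. coli strains, each edited to carry one amino-acid change in an essential protein, was grown for 48 h on minimal glucose agar with or without antibiotic; strain barcodes were sequenced; mean of two replicates.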", "values": [
      {"variant": "MADTKAKLTLNGDTAVELDVLKGTLGQDVIDIRTLGSKGVFTFDPGFTSTASCESKITFIDGDEGILLHRGFPIDQLATDSNYLEVCYILLNGEKPTQEQYDEFKTTVTRHTMIHEQITRLFHAFRRDSHPMAVMCGITGALAAFYHDSLDVNNPRHREIAAFRLLSKMPTMAAMCYKYSIGQPFVYPRNDLSYAGNFLNQMFSTPCEPYEVNPILERAMDRILILHADHEQNASTSTVRTAGSSGANPFACIAAGIASLWGPAHGGANEAALKMLEEISSVKHIPEFVRRAKDKNDSFRLMGFGHRVYKNYDPRATVMRETCHEVLKELGTKDDLLEVAMELENIALNDPYFIEKKLYPNVDFYSGIILKAMGIPSSMFTVIFAMARTVGWIAHWSEMHSDGMKIARPRQLYTGYEKRDFKSDIKR", "note": "[IFQIFI]", "fold change of barcode share": "0.305 ± 0.19"},
      {"variant": "MADTKAKLTLNGDTAVELDVLKGTLGQDVIDIRTLGSKGVFTFDPGFTSTASCESKITFIDGDEGILLHRGFPIDQLATDSNYLEVCYILLNGEKPTQEQYDEFKTTVTRHTMIHEQITRLFHAFRRDSHPMAVMCGITGALAAFYHDSLDVNNPRHREIAAFRLLSKMPTMAAMCYKYSIGQPFVYPRNDLSYAGNFLNMMFSTPCEPYEVNPILERAMDRILILHADHEQNASTSTVRTAGSSGANPFACIAAGIASLWGPAHGGANEAALKMLEEISSVKHIPEFVRRAKDKNDSFRLMGFGHRVYKNYDPRATVMRETCHEVLKELGTKDDLLEVAMELENIALNDPYFIEKKLYPNVDFYSGIILKAMGIPSSMFTVPFAMARTVGWIAHWSEMHSDGMKIARPRQLYTGYEKRDFKSDIKR", "note": "[IFMPFI]", "fold change of barcode share": "0.983 ± 0.2"},
      {"variant": "MADTKAKLTLNGDTAVELDVLKGTLGQDVIDIRTLGSKGVFTFDPGFTSTASCESKITFIDGDEGILLHRGFPIDQLATDSNYLEVCYILLNGEKPTQEQYDEFKTTVTRHTMIHEQITRLPHAFRRDSHPMAVMCGITGALAAFYHDSLDVNNPRHREIAAFRLLSKMPTMAAMCYKYSIGQPFVYPRNDLSYAGNFLNMMFSTPCEPYEVNPILERAMDRILILHADHEQNASTSTVRTAGSSGANPFACIAAGIASLWGPAHGGANEAALKMLEEISSVKHIPEFVRRAKDKNDSFRLMGFGHRVYKNYDPRATVMRETCHEVLKELGTKDDLLEVAMELENIALNDPYFIEKKLYPNVDFYSGIILKAMGIPSSMFTVIFAMARTVGWIAHWSEMHSDGMKIARPRQLYTGYEKRDFKSDIKR", "note": "[IPMIFI]", "fold change of barcode share": "0.954 ± 0.35"},
      {"variant": "MADTKAKLTLNGDTAVELDVLKGTLGQDVIDIRTLGSKGVFTFDPGFTSTASCESKITFIDGDEGILLHRGFPIDQLATDSNYLEVCYILLNGEKPTQEQYDEFKTTVTRHTMIHEQITRLFHAFRRDSHPMAVMCGITGALAAFYHDSLDVNNPRHREIAAFRLLSKMPTMAAMCYKYSIGQPFVYPRNDLSYAGNFLNMMFSTPCEPYEVNPILERAMDRILILHADHEQNASTSTVRTAGSSGANPFACIAAGIASLWGPAHGGANEAALKMLEEISSVKHIPEFVRRAKDKNDSFRLMGFGHRVYKNYDPRATVMRETCHEVLKELGTKDDLLEVAMELENIALNDPYFIEKKLYPNVDFYSGIILKAMGIPSSMFTVIPAMARTVGWIAHWSEMHSDGMKIARPRQLYTGYEKRDFKSDIKR", "note": "[IFMIPI]", "fold change of barcode share": "29.3 [active]"},
      {"variant": "MADTKAKLTLNGDTAVELDVLKGTLGQDVIDIRTLGSKGVFTFDPGFTSTASCESKITFIDGDEGILLHRGFPIDQLATDSNYLEVCYILLNGEKPTQEQYDEFKTTVTRHTMIHEQITRLFHAFRRDSHPMAVMCGITGALAAFYHDSLDVNNPRHREIAAFRLLSKMPTMAAMCYKYSIGQPFVYPRNDLSYAGNFLNMMFSTPCEPYEVNPILERAMDRILILHADHEQNASTSTVRTAGSSGANPFACIAAGIASLWGPAHGGANEAALKMLEEISSVKHIPEFVRRAKDKNDSFRLMGFGHRVYKNYDPRATVMRETCHEVLKELGTKDDLLEVAMELENIALNDPYFIEKKLYPNVDFYSGIILKAMGIPSSMFTVWFAMARTVGWIAHWSEMHSDGMKIARPRQLYTGYEKRDFKSDIKR", "note": "[IFMWFI]", "fold change of barcode share": "1.81 ± 0.99"}
    ]},
    {"variants_of": "B1", "test": "barcode share on antibiotic plates over drug-free plates; higher = less susceptible", "details": "with Escherichia coli (laboratory strain); antibiotic: gentamicin; 2× MIC (MIC 0.45 µg/mL)", "description": "as §1", "values": [
      {"variant": "MADTKAKLTLNGDTAVELDVLKGTLGQDVIDIRTLGSKGVFTFDPGFTSTASCESKITFIDGDEGILLHRGFPIDQLATDSNYLEVCYILLNGEKPTQEQYDEFKTTVTRHTMIHEQITRLFHAFRRDSHPMAVMCGITGALAAFYHDSLDVNNPRHREIAAFRLLSKMPTMAAMCYKYSIGQPFVYPRNDLSYAGNFLNQMFSTPCEPYEVNPILERAMDRILILHADHEQNASTSTVRTAGSSGANPFACIAAGIASLWGPAHGGANEAALKMLEEISSVKHIPEFVRRAKDKNDSFRLMGFGHRVYKNYDPRATVMRETCHEVLKELGTKDDLLEVAMELENIALNDPYFIEKKLYPNVDFYSGIILKAMGIPSSMFTVIFAMARTVGWIAHWSEMHSDGMKIARPRQLYTGYEKRDFKSDIKR", "note": "[IFQIFI]", "fold change of barcode share": "0.0289 ± 0.012"},
      {"variant": "MADTKAKLTLNGDTAVELDVLKGTLGQDVIDIRTLGSKGVFTFDPGFTSTASCESKITFIDGDEGILLHRGFPIDQLATDSNYLEVCYILLNGEKPTQEQYDEFKTTVTRHTMIHEQITRLPHAFRRDSHPMAVMCGITGALAAFYHDSLDVNNPRHREIAAFRLLSKMPTMAAMCYKYSIGQPFVYPRNDLSYAGNFLNMMFSTPCEPYEVNPILERAMDRILILHADHEQNASTSTVRTAGSSGANPFACIAAGIASLWGPAHGGANEAALKMLEEISSVKHIPEFVRRAKDKNDSFRLMGFGHRVYKNYDPRATVMRETCHEVLKELGTKDDLLEVAMELENIALNDPYFIEKKLYPNVDFYSGIILKAMGIPSSMFTVIFAMARTVGWIAHWSEMHSDGMKIARPRQLYTGYEKRDFKSDIKR", "note": "[IPMIFI]", "fold change of barcode share": "< 0.00672"}
    ]}
  ]
}
